Reference: PubChem BioAssay AID485294 (National Center for Advancing Translational Sciences (NCATS), 2010)
The whole screen tested about 370,000 compounds, of which about 150 (0.041%) were called active. The shares of active, inactive and inconclusive entries below differ from those in the screen. Calls come from the whole dose curve; as a rule, active = well fitted inhibition curve with a large enough effect; inconclusive = small, poorly fitted or top-dose-only effect; inactive = flat fitted curve, though single readings scatter. No potency is given beside an inconclusive call; the fits are too rough.
Note: nearly all actives have a fitted effect of over 25% in size.
Potency is the fitted concentration of half-maximal effect; tags give direction and shape of the fitted curve.
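Throughout, for activity change, negative = inhibition: 0% = no-compound wells and -100% = no-enzyme wells.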

The compounds below were run against Beta-lactamase (Escherichia coli (strain K12)) (UniProt P00811) (assay: qHTS Inhibitors of AmpC Beta-Lactamase (assay with detergent)). Conditions: AmpC hydrolysis of nitrocefin, absorbance 480 nm, 0.01% Triton; activity change, negative = inhibition: at 114 µM (top of the series).
Chain of UniProt P00811 (P00811 whole entry, looked up): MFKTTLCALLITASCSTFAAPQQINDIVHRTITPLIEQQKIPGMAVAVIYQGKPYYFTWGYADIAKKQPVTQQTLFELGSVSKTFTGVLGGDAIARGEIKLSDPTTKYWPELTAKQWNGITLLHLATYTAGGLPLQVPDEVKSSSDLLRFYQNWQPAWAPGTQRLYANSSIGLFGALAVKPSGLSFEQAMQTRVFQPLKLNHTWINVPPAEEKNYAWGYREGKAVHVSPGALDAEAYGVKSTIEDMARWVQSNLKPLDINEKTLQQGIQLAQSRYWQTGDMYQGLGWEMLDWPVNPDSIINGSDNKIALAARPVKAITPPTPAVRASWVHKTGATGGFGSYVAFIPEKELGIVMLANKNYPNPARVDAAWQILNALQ
How it was run: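 20 mM phosphate pH 7.0 + 0.01% (detergent screen) or 0.0001% Triton X-100; 5.3 nM AmpC reagent; cpd preinc 15 min RT; nitrocefin (800 uM stock) to start; A480 q20 s × 4 min; Activity was normalised to no-enzyme and no-compound control wells.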
In the case of `CCOC(=O)c1c[nH]c2c(Cl)ccc(Cl)c2c1=O`, the Potency is reported as inconclusive [inhibitor, full curve, poor fit].
With `CC12CCC(C(=O)Nc3ccccc3)(C/C1=N\O)C2(C)C` (stereo not given) the “activity change, negative = inhibition” value was inactive: -7.64%.
With `N=c1c2c(n(Cc3ccc(F)cc3)c3c1CCC3)CCC2` the “activity change, negative = inhibition” value was inactive: 8.89%.
In the case of `Cc1ccc(-c2csc3nc(CN(C)Cc4ccccc4)[nH]c(=O)c23)cc1`, the “activity change, negative = inhibition” value is reported as inactive: 1.32%.
With `O=C1Nc2ccccc2N(O)N1c1ccc(S(=O)(=O)Nc2ccccn2)cc1` the Potency was inconclusive [inhibitor, full curve].
With `CC(C)CC(=O)CN1C(=O)C2(OCCO2)c2ccccc21` the Potency was inconclusive [inhibitor, full curve, poor fit].
`O=C(Cc1ccc(S(=O)(=O)N2CCOCC2)s1)N1CCN(S(=O)(=O)c2cccc([N+](=O)[O-])c2)CC1` was tested, and the Potency was inconclusive [inhibitor, full curve, poor fit].
For `CC1=C(C(=O)NC2CCC(C)CC2)C2(CCC(C)CC2)OC1=O` (stereo not given), the Potency was inconclusive [inhibitor, full curve, poor fit].
For `Cc1cc(=O)cc(C)n1-c1ccc2c(c1)nc(C)n2-c1ccccc1`, the Potency was inconclusive [inhibitor, single point].
For `CCCCOC(=O)C1[C@H]2C(=O)N(Cc3cccs3)C[C@]23C=C[C@H]1O3` (stereo not given in full), the “activity change, negative = inhibition” value was inactive: -2.38%.
For `C=CCS/C(N)=N\N=C\c1c(O)ccc2ccccc12`, the “activity change, negative = inhibition” value was inactive: 2.15%.
For `CCCCC(=O)Nc1ccc(C(=O)NCCc2ccccc2)cc1`, the Potency was inconclusive [inhibitor, partial curve, poor fit].
`CCCc1c(NC(=O)Nc2ccc(F)cc2)cnn1-c1ccccc1` was tested, and the “activity change, negative = inhibition” value was inactive: 0.281%.
`CCSc1nnc(NC(=O)C2CCN(S(=O)(=O)c3cc(C(F)(F)F)ccc3Cl)CC2)s1` was tested, and the Potency was inconclusive [inhibitor, full curve].
`COc1cccc(NC(=O)CN(C)S(=O)(=O)c2ccc3c(c2)n(C)c(=O)c(=O)n3C)c1` was tested, and the “activity change, negative = inhibition” value was inactive: 0.423%.
For `S=C(NCc1ccco1)Nc1ccc(N2CCOCC2)cc1`, the “activity change, negative = inhibition” value was inactive: -9.6%.
`CCOCCn1cnc2sc(C(=O)NCC(=O)OCC)c(C)c2c1=O` was tested, and the “activity change, negative = inhibition” value was inactive: 5.59%.
With `S=C(NCC1CCCO1)Nc1ccc(Cl)c(Cl)c1` (stereo not given) the Potency was inconclusive [inhibitor, full curve, poor fit].
`Cc1ccc(C(=O)NCCSc2ccc(Cl)cc2)cc1S(=O)(=O)Nc1ccccc1` was tested, and the Potency was inconclusive [inhibitor, full curve, poor fit].
`Cc1cccc(Cn2cnc3c(N)c(C)c(C)cc32)c1` was tested, and the Potency was inconclusive [inhibitor, full curve, poor fit].
With `Cc1cc(C)c2nc(NNC(=O)c3ccc(S(=O)(=O)N4CCCC(C)C4)cc3)sc2c1` (stereo not given) the Potency was inconclusive [inhibitor, partial curve, poor fit].
In the case of `CCN(CCCCOC(=O)c1ccc(OC)c(OC)c1)C(C)Cc1ccc(OC)cc1` (stereo not given), the Potency is reported as inconclusive [inhibitor, partial curve].
`CCOc1ccccc1OCCOCCN1CC(C)OC(C)C1` (stereo not given) was tested, and the Potency was inconclusive [inhibitor, full curve].
For `COc1ccc(C2CC(c3ccccc3)=NN2C(=O)COC(=O)c2cc(S(=O)(=O)N3CCOCC3)ccc2Cl)cc1` (stereo not given), the Potency was inconclusive [inhibitor, full curve].
With `COc1ccc(S(=O)(=O)NCCSCc2ccco2)cc1` the “activity change, negative = inhibition” value was inactive: -9.63%.
For `COc1ccc(OCCOc2cccc(C=C3C(=O)NC(=O)NC3=O)c2)cc1`, the “activity change, negative = inhibition” value was inactive: -13.6%.
In the case of `COc1cccc(/C=N/Nc2nnc(C)n2N)c1OCc1ccccc1Cl`, the Potency is reported as inconclusive [inhibitor, full curve, poor fit].
`CN(C)CCN1C(=O)C(=O)/C(=C(/O)c2ccccc2)C1c1ccccc1F` (stereo not given) was tested, and the Potency was inconclusive [inhibitor, full curve].
`CN(C(=O)COC(=O)/C=C/c1ccc2c(c1)OCO2)c1c(N)n(Cc2ccccc2)c(=O)[nH]c1=O` was tested, and the Potency was inconclusive [inhibitor, full curve].
`C/C(=N\Nc1nc(C)cc(-c2ccccc2)n1)c1ccc(F)cc1` was tested, and the Potency was inconclusive [inhibitor, full curve, poor fit].
For `CCn1nc([N+](=O)[O-])c(C(C#N)c2nc3ccccc3n2C)c(Cl)c1=O` (stereo not given), the “activity change, negative = inhibition” value was inactive: -11.5%.
With `Cc1ccccc1NC(=O)NCc1ccco1` the Potency was inconclusive [inhibitor, partial curve].
`CC(C)CSc1nsc(N)n1` was tested, and the “activity change, negative = inhibition” value was inactive: 0.55%.
In the case of `O=C1CCCc2c1cc(-c1ccccc1)n2-c1ccccc1`, the Potency is reported as inconclusive [inhibitor, partial curve, poor fit].
With `CC(CC#CCN1CCOCC1)OCCC#N` (stereo not given) the Potency was inconclusive [inhibitor, partial curve, poor fit].
With `Cn1ccnc1SCC(=O)c1cc2ccccc2o1` the Potency was inconclusive [inhibitor, partial curve, poor fit].
For `COc1cccc(NC(=S)N2CCn3cccc3C2c2cccnc2)c1` (stereo not given), the “activity change, negative = inhibition” value was inactive: 1.46%.
For `COc1ccc(N(C(=O)c2snc(C(N)=O)c2N)C(C(=O)NC2CCCC2)c2cccs2)cc1OC` (stereo not given), the Potency was inconclusive [inhibitor, full curve].
`CCc1cc2c(=O)c(-c3nc4ccccc4n3C)c(COCC(=O)O)oc2cc1O` was tested, and the “activity change, negative = inhibition” value was inactive: 2.14%.
With `CCOc1cccc(=O)c2c(C)n(CC(=O)c3ccccc3)c(C)c12` the “activity change, negative = inhibition” value was inactive: 4.58%.
For `COc1ccc(C2=NS(=O)(=O)N(C)C(C(=O)NC(C)c3ccccc3)=C2)cc1OC` (stereo not given), the Potency was inconclusive [inhibitor, full curve, poor fit].
`CCc1cc[n+](C2=C([O-])c3ccccc3C(=O)/C2=N\S(=O)(=O)c2cccs2)cc1` was tested, and the Potency was inconclusive [inhibitor, single point].
With `CC1=C(C(=O)OC2CCCC2)C(c2ccc(Cl)cc2)CC(=O)N1` (stereo not given) the “activity change, negative = inhibition” value was inactive: 12.3%.
With `COc1ccc2cc(CCNC(=O)C(C)C)c(=O)[nH]c2c1` the Potency was inconclusive [inhibitor, full curve, poor fit].
`Nc1cc(-c2ccc(Br)cc2)nn1S(=O)(=O)c1cccc2nsnc12` was tested, and the Potency was inconclusive [inhibitor, partial curve].
